# Laboratory results reported in the supplement of paper PMC11417369.
# The other results are listed elsewhere or left out.
# Tested on: PF3D7_0420300 AP2 domain 1 (GST-tagged)
# Test: gcPBM binding intensity (ln(normalized median fluorescence intensity)); higher = stronger DNA binding
# In short: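 Binding intensity values are the highest Masliner-normalised natural-log median intensity among replicate spots of either probe orientation. The binding step lasted 1 h in 1× PBS with 1% milk, 0.2 mg/ml BSA, 0.5% salmon testes DNA and 0.03% Triton X-100, using GST-tagged P. falciparum DNA-binding domains expressed in E. coli on an Agilent 4 × 180k array of primer-extended double-stranded 36-bp intergenic genomic probes plus negative controls. Alexa488 anti-GST antibody and a 488 nm scan detected bound protein.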
row,Sequence,gcPBM binding intensity (ln)
1,CATACAAATTAATATGTACACACAAATATATATATA [CACACA_site8605],9.61
2,AGTAGTCTGGAGAAAAGTACATAGTATCTGGTAACC [XGTACX_site2024],9.29
3,TTTTACAATAATAAGTAGATCTAAATAAAGATTTAA [GTGCAC_negctrl_site547],8.96
4,TTTATATTATTTAATGAGAAATAATTATAAACAATT [TGCATGCA_negctrl_site65],8.8
5,TTCCAAAATTGCACATGTACAAAATTCTCCAATATG [XGTACX_site3419],9.09
6,TTTTTTTTTTTTTTTTGTACATATTTTAATTTGTTT [XGTACX_site6297],8.75
7,AAAAAAAAAAAATAATGTACATATGTATTTGAGAAA [XGTACX_site3572],9.23
8,AGTATAATAATATTTACACACGCATATGTTATATAT [CACACA_site1476],9.57
9,ATTTAAAAAAAAAAAACACACATGTGAATAGAAAAG [CACACA_site3323],9.38
10,TACTGCCTTCCATACCCACACACTTCCCATATATTT [CACACA_site2705],9.94
11,AAAACGCTACATAATTGTACATGTAGAAATAAAAGC [XGTACX_site2895],9.51
12,TCTAAAAATAAGAACACACACATATAAGCATATAAA [CACACA_site2274],9.78
13,ATATATTATATATATTGTACATGTAAAATTTTAAAA [XGTACX_site7197],9.13
14,TATGTATTTAAATTAACACACATATGTGGTTAATAG [CACACA_site5697],9.25
15,AAAAATTTGGCATACACACACACACCCACACCCACA [CACACA_site587],10.2
16,ACATATATATATATATATATATATATATCATTATGT [CACACA_negctrl_site724],9.11
17,ACTCTTGATCTGAATGCACACAATAAATTATATAAA [CACACA_site1438],9.37
18,ATAAATATAATAATCATACACACCAAAGAGAATATT [CACACA_site1888],9.79
19,AAAGTTATTATGCAATAATTATGATAATTAATATAT [TGCATGCA_negctrl_site316],9.17

row,Sequence,gcPBM binding intensity (ln)
1,ATGACTTACATATATAGTACTTTGTTTTGGAGTTGC [XGTACX_site94],9.25
2,TATGAGGAAACGTGGTGTACTTTTTTTTAATAAAAA [XGTACX_site1351],8.91
3,ATATTTAAATAATATTCACACACAAAATTATATTTT [CACACA_site7955],9.42
4,CATATAAAAATATATGCACACAAATAAAAAATTATA [CACACA_site9210],9.47
5,ATTTCTCAATCGTAATGTACAAAAAAAAGGGAAAAG [XGTACX_site2781],9.27
6,ACAAACAAAGAAAGAACACACATACACAATATACCT [CACACA_site5566],9.95
7,ATTAAAAAGACAAAAAAAAAATTTTTTTTTTTTTTT [CACACA_negctrl_site1027],9.07
8,GTAGCAATAAACATATGTACATATATATATTTTTTC [XGTACX_site5814],9.36
9,AAATCAACGATCTATACATGCATATAATATATACAT [TGCATGCA_site25],9.24
10,TAATAATACCCTTGCTGTACCAAATAAAGTTGAATA [XGTACX_site6922],9.15
11,TTTCATAACAAAAAAGTGCAAAATAGCACGAACATT [GTGCAC_site9703],9.38
12,AAAAATTATATACATCATAGAATTAACATTTTAAAT [GTGCAC_negctrl_site369],9.13
13,AGAAAAAGGAGAAAAAGTACAAAACGGAGTAGTATT [XGTACX_site3858],9.74
14,AAAAAAAAAAAGTTTACACACATTAATTTTACATAT [CACACA_site834],9.53
15,AAAAAAATACCATTCACACATATTCTTTTATTATTT [CACACA_site5113],9.25
16,TATTATTGCATATTTACACACGTACTAATTTAAACA [CACACA_site970],9.55
17,TTTTTCTATAAAAAAAAAAAAAAAAAATATATATAT [TGCATGCA_negctrl_site535],8.86
18,TTGTATATTTTATGTACACACAATAAGTTAATATAA [CACACA_site4655],9.31
19,AAAATAATGTATATATGTACATATAAATATATATAT [XGTACX_site8081],9.4

row,Sequence,gcPBM binding intensity (ln)
1,ATAAAAGGAAGAAAATGTACATATAATTATATGCAT [XGTACX_site8421],9.44
2,TGTATACTATTAAATTGTACACATAAGAAATATTAT [XGTACX_site5839],9.14
3,TTTTACAAATATAATGGGTGAGCTATCAAAATAAAT [GTGCAC_negctrl_site91],9.31
4,TATATATATATATATATAATACGAATTTGTAGTACA [TGCATGCA_negctrl_site224],9.27
5,ATGTTTTTAAAAAATTGTACATAATATTTTTTATAA [XGTACX_site7692],9.01
6,ATAAAAATCATGTTGGTGCGAAATTTTATTATCAGA [GTGCAC_site9735],9.17
7,ATATTAATTCGTTTTGTACACACATAATGAATAATT [CACACA_site8701],9.44
8,AATTATTTACCCTATACACACAAAACAGACTAAAAA [CACACA_site6688],9.74
9,AAGGTATGATTAATCACACACATAAATATATATACA [CACACA_site2658],9.65
10,TTATGTATAAACACACGTACACACACTAAGTATATC [XGTACX_site3254],9.74
11,TTTAAAAAGATATATACACACATATAAATAAATATA [CACACA_site6436],9.34
12,ACACATACACATTAGGTGCATATATTTCAATATTAC [GTGCAC_site9423],9.43
13,AGCCTCGGGGTCATATATATATATATATATATATAT [CACACA_negctrl_site512],9.27
14,CCACGTATAATATGTACACACACATATATACAAAAA [CACACA_site8208],9.79
15,ATTATATTTTTAAGTACACACATATATATATATATA [CACACA_site5925],9.46
16,TTTTTTTTGTGGTGTCGTACATATGTTTGTTTTAAG [XGTACX_site1759],9.66
17,ACATATATATATATATATATATATATATAATATTTA [CACACA_negctrl_site633],8.9
18,ATTATGCTACAAGGAGAACACACAATTGCCACTTTT [CACACA_site8673],9.45
